Several values for one entry are separate records, joined by “and”; a condition that tells them apart may be missing. Identical values can stand only once.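 Cells were grown in 96-well plates and exposed to each compound for 48 hours at five concentrations; endpoints were interpolated linearly between bracketing concentrations, or set to the highest concentration if not reached. Here, GI50 denotes the concentration required for 50% inhibition of growth. At the TGI there is no net growth.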
Tested on: NCI-H322M lung
Test: NCI tumour cell line growth inhibition, 48 h

Row | Structure (SMILES) | TGI | GI50
1 | CC(C)C1=C(Cc2ccccc2)C(=O)O/C1=C\c1cc(Cl)c(O)c(Cl)c1 | 33.1 µM | 
2 | CCC1C2C=CC(CC2)N1S(=O)(=O)c1ccc(C)cc1 (configuration not stated) | > 100 µM | 
3 | COc1ccc(/C=N/n2c(-c3ccccc3)n[nH]c2=O)cc1 | > 100 µM | 
4 | COc1cccc(/C=N/[N-]C(=O)c2ccncc2)c1[O-].[Cu+2].[OH3+] | > 100 µM | 26.3 µM
5 | CC1(C)OC(=C(C#N)C#N)C(C#N)=C1/C=C/c1ccncc1 | 13.5 µM | 
6 | Cc1ccc(NC(=S)NNC(=O)c2cc(-c3ccccc3)nc3ccccc23)cc1 | 30.9 µM | 
7 | O=C(CCc1cc(O)cc(O)c1)NCCc1cc(O)cc(O)c1 | > 100 µM | 
8 | COc1cc2c(cc1O)C1C(O)C(O)C=C3CCN(C2)C31 (configuration not stated) | 15.6 µM | 
9 | N#Cc1c(-c2ccc(F)cc2)c(-c2ccc(F)cc2)nn(CCO)c1=O | > 100 µM | 
10 | CCOC(=O)C(=Cc1cccc(Cl)c1)C(=O)OCC | 7.66 µM | 2.4 µM
11 | O=C(NCCCCN=c1cccccc1NCCCCNC(=O)OCc1ccccc1)OCc1ccccc1 | 71.8 µM | 
12 | CCOC(=O)NC(=O)c1cn(CCOC(=O)NCCCCCCNC(=O)OCCn2cc(C(=O)NC(=O)OCC)c(=O)[nH]c2=O)c(=O)[nH]c1=O | > 100 µM | 
13 | O=c1cc2oc3cc(O)c(O)cc3c(-c3ccccc3O)c-2cc1O | > 100 µM | 11.6 µM
14 | CC(C)(C)NC(=O)N1N=C(c2ccccc2)C1c1ccccc1 (configuration not stated) | > 100 µM | 
15 | O=C(Nc1cc(Cl)ccc1Cl)c1cc2cccc(Cl)c2oc1=O | > 100 µM | 
16 | Cc1ccc(Cl)cc1Nc1nc(C(F)(F)F)ccc1C(=O)N1CCN(c2cccc(Cl)c2)CC1 | > 100 µM | > 100 µM
17 | NS(=O)(=O)c1ccc(N(/C=C/C(=O)C(F)(F)F)CC(=O)c2ccc(Cl)cc2)cc1 | > 100 µM | 34.3 µM
18 | O=S(Cc1ccccn1)c1nc2ccccc2nc1-c1ccccc1 (configuration not stated) | > 100 µM | 
19 | COc1cc(C2c3cc4c(cc3C(O)C(CO)C2CO)OCO4)cc(OC)c1OC (configuration not stated) | > 100 µM | 2.89 µM
20 | O=c1c2ccccc2sc2cccc(NCCCN3CCN(CCCNc4cccc5sc6ccccc6c(=O)c45)CC3)c12 | > 100 µM | 
21 | O=C(O)CCN(CCC(=O)O)c1ccc(/C=C2\SC(=S)NC2=O)cc1 | > 100 µM | 
22 | CC(=O)Nc1ccc(-c2nc3cc(Cl)ccc3o2)cc1 | > 50 µM | 
23 | Oc1ccc(-c2nc(-c3ccc(F)cc3)c(-c3ccc4ccccc4n3)[nH]2)cc1 | 46.5 µM | 
24 | CC(NNC(=O)CC(=O)N(C(=O)c1ccccc1)c1ccc(Cl)cc1)c1cc2ccccc2oc1=O (configuration not stated) | > 10 µM | 
25 | COc1ccc(C(OC(C)=O)C2C(=C(C#N)C#N)c3ccccc3C2=C(C#N)C#N)cc1 (configuration not stated) | > 100 µM | 

Row | Structure (SMILES) | TGI | GI50
26 | COC(=O)c1c(O)ccc2c1c1c(n2Cc2ccc(Cl)cc2Cl)C(=O)c2ccccc2C1 | > 100 µM | 
27 | CC(C)(C)C(=O)OC(N)/C=C/c1ccccc1 (configuration not stated) | > 100 µM | 
28 | CC12CC(C#N)(C#N)C(C#N)(CO1)C(=N)O2 (configuration not stated) | > 100 µM | 
29 | CC[C@]1(Cc2ccc(OC)c(OC)c2)[C@@H]2C[C@@H](C3OCCO3)ON2O[C@H](OC2CCCC2(c2ccccc2)c2ccccc2)[C@@H]1OC(C)=O (some centres not stated) | > 100 µM | 
30 | C[C@H]1NC(=O)C2CCCCN2C(=O)CN(C)C(=O)CNC(=O)C2CCCCN2C(=O)[C@@H](NC(=O)c2nc3ccccc3cc2O)[C@@H](C)NC(=O)C2CCCCN2C(=O)CN(C)C(=O)CNC(=O)[C@@H]2CCCCN2C(=O)C1NC(=O)c1nc2ccccc2cc1O (some centres not stated) | 0.892 µM | 
31 | COc1c(OC)c(OC)c(C(=O)/C=C/c2ccccc2)c(OC)c1OC | 20.9 µM | 
32 | N=c1ccn2c(n1)OC1C(O)C(CO)OC12 (configuration not stated) | > 1000 µM | > 100 µM
33 | CC1=C2CCCC2=C/C(=N/Nc2ccc([N+](=O)[O-])cc2[N+](=O)[O-])CC1 | > 100 µM | 
34 | N#CC1(C#N)C2CCCCC23OC(=N)C1(C#N)C(c1ccccc1)O3 (configuration not stated) | > 100 µM | 
35 | CCCCCC(/C=C/C1CCC(=O)C1CC#C[Si](C)(C)C)OCc1ccccc1 (configuration not stated) | > 100 µM | 
36 | C[C@H]1C2Cc3cc(N)ccc3[C@@]1(C)CCN2CCc1ccccc1 | > 100 µM | 
37 | CCOc1ccc2c(c1)[n+]([O-])c(-c1ccccc1Cl)c(N)[n+]2[O-] | > 100 µM | 
38 | Cc1nc2cnc(N)c(C#Cc3cncc(C(=O)Nc4ccc(CN5CCN(C)CC5)c(C(F)(F)F)c4)c3)c2nc1C | 4.6 µM | 0.322 µM
39 | Cc1c(Cl)cccc1N1C(=O)C(Cl)=C(Cl)C1=O | > 100 µM | 
40 | O=[N+]([O-])c1cc2c(c3nonc13)OCCCCO2 | 41.1 µM | 
41 | CC(=O)Nc1ccc2cc(C)c(=O)[nH]c2n1 | > 100 µM | 
42 | O=C(c1cc(Cl)cc(Cl)c1)N1CCN(C(=O)c2cc(Cl)cc(Cl)c2)C1=S | 30.5 µM | 
43 | CC(=O)OC12c3ccccc3-c3ccccc3C1C1C(=O)N(C)C(=O)C12Cl (configuration not stated) | > 10 µM | 
44 | CC(=O)OC1O[C@@H](C(C)(C)O)CC[C@@H]1[C@H]1CC[C@@]2(C)C3=C(CC[C@]12C)[C@@]1(C)C[C@@H](OC(=O)CC(C)(O)CC(=O)O)[C@H](OC(C)=O)C(C)(C)C1CC3 (some centres not stated) | 31.3 µM | 
45 | CCCCCCNC(=O)c1nc(-c2ccccc2)oc1Cc1ccc(OP(=O)(O)O)cc1 | 38.2 µM | 17 µM
46 | COc1ccc(N2C(=O)CS(=O)(=O)C2c2cccc(Oc3ccccc3)c2)cc1 (configuration not stated) | > 100 µM | 
47 | Nc1nccc2c1ccn2-c1ccc(NC(=O)c2ccc(N3CCOCC3)c(C(F)(F)F)c2)cc1 | 29.8 µM | 3.78 µM
48 | S=c1[nH]n2c(COc3cccc(OCc4nnc5sc(=S)[nH]n45)c3)nnc2s1 | > 100 µM | 
49 | CCOC(=O)c1csc(NC(=O)CN2CCN(C)CC2)n1 | > 100 µM | 
50 | C[C@@H]1CCC2[C@@H](C)[C@@H](OCCO[C@H]3OC4O[C@@]5(C)CCC6[C@H](C)CCC([C@H]3C)[C@@]46OO5)OC3O[C@@]4(C)CCC1[C@]32OO4 (some centres not stated) | > 100 µM | 

Row | Structure (SMILES) | TGI | GI50
51 | Cn1cc(C2=C(c3cn(C)c4cc(C(N)=O)ccc34)C(=O)NC2=O)c2ccccc21 | 24.2 µM | 1.53 µM
52 | COc1cc(C2SCC(=O)N2c2ccc(Cl)c(Cl)c2)cc(OC)c1OC (configuration not stated) | > 100 µM | 
53 | Cc1c(O)c(C)c2c(C)cn(C(=O)C(C)(C)C)c2c1C | 35.4 µM | 
54 | COc1cccc2c1C(=O)c1c(O)c3c(c(O)c1C2=O)C[C@@](O)(C(=O)CO)C[C@@H]3OC1CC(N)C(OC)C(C)O1 (some centres not stated) | 4.9 µM | 
55 | CCOC(=O)c1ccc(C(=O)/C(C#N)=C2\CCCN2C)[nH]1 | > 100 µM | 
56 | COc1ccc(-c2oc(=O)ccc2-c2cc(OC)c(OC)c(OC)c2)cc1F | > 100 µM | 80.6 µM
57 | Cc1cc(C)nc(NS(=O)(=O)c2ccc(NNC(=O)c3cccc4c(=O)c5ccccc5[nH]c34)cc2)n1 | > 100 µM | 
58 | O=C(c1ccc(F)c(F)c1Nc1ccc(I)cc1F)N1CC(O)([C@@H]2CCCCN2)C1 | 13.9 µM and > 10 µM | < 0.0369 µM and 0.27 µM
59 | O=c1[nH]cc(COCCO)c(=O)[nH]1 | > 100 µM | 
60 | Cc1ccc(Cn2c(C)nc3c2C(=O)c2ccccc2C3=O)cc1 | > 100 µM | 
61 | N#C/C(N)=C(\C#N)NC=NCc1ccccc1 | > 100 µM | 
62 | CC(=C\c1ccccc1)/C=C(\C#N)C(N)=O | > 10 µM | 
63 | O=C1/C(=C/c2ccccc2)NC(=S)N1CN1CCOCC1 | > 100 µM | 
64 | C=Cc1c(C)c2cc3nc(cc4[nH]c(cc5nc(cc1[nH]2)C(C)=C5CCC(=O)O)c(CCC(=O)OC)c4C)[C@@]1(C)C3=CC=C(C(=O)OC)[C@H]1C(=O)OC | 4 µM | 1.79 µM
65 | CC(C)(C)c1cc(C(CO)OCCOCCO)cc(C(C)(C)C)c1O (configuration not stated) | > 100 µM | 
66 | CC(C)C[C@H]1[C@@H](OCc2ccccc2)COS(=O)N1[C@H](C)c1ccccc1 (some centres not stated) | 55 µM | 
67 | CC(=O)c1cc2c(o1)C(=O)c1ccccc1C2=O | 0.457 µM and 0.339 µM | 0.202 µM and 0.182 µM
68 | CCc1nc2ccc(N=NN(C)C)cc2[nH]1 | > 100 µM | 
69 | Cn1cnc([N+](=O)[O-])c1S(=O)(=O)Oc1ccccc1 | > 100 µM | > 74.4 µM
70 | COC(=O)C1C=CN(N(C)C)C2=C1C(=O)c1c(O)cccc1C2=O (configuration not stated) | 4.33 µM | 
71 | Cc1cc(OCc2nnc3n2N=C(c2cc(F)c(Cl)cc2Cl)/C(=C/c2ccc(Cl)cc2)S3)ccc1Cl | > 100 µM | 
72 | COc1ccc(/C(=N\NC(=O)C(N)=O)C(c2ccc(OC)cc2)C2(O)C(=O)Nc3c(Cl)cccc32)cc1 (configuration not stated) | > 100 µM | 
73 | CN1C(=O)C(CC=O)(C(C)(C)C)c2ccccc21 (configuration not stated) | > 100 µM | 
74 | CC1(C)OCCn2c1nc1c(N3CCOCC3)nc(-c3cnc(N)nc3)nc12 | > 24.4 µM | 0.326 µM
75 | CCOC(=O)C1(c2ccccc2)CCC(=O)CC1 | > 100 µM | 

Row | Structure (SMILES) | TGI | GI50
76 | O=[N+]([O-])c1ccc(-n2nnc(C3=NCCN3)c2-c2ccc(Cl)cc2)cc1 | > 100 µM | 
77 | O=C(O)[C@H](NS(=O)(=O)c1ccc2ccccc2c1)c1ccccc1 | > 100 µM | 
78 | CCc1c(OC(C)=O)c2c(NC3OC(COC(C)=O)C(OC(C)=O)C(OC(C)=O)C3OC(C)=O)nc(OC)nc2oc1=O (configuration not stated) | > 100 µM | 
79 | Cc1ccsc1/C=N/Nc1ccc2ccccc2n1 | 98.7 µM | 
80 | CCCCCCC[CH2][Sn]1([CH2]CCCCCCC)[O]C(=O)c2cccnc2[S]1 | > 100 µM | > 100 µM
81 | CCN(CC)CCOc1ccc(/C=C2\CC3C4CC=C5C[C@@H](O)CC[C@]5(C)C4CC[C@]3(C)C2=O)cc1OC (some centres not stated) | 19.2 µM | 6.55 µM
82 | COc1ccc(OC)c(N2C(=O)CSC2c2cc(OC)c(OC)c(OC)c2)c1 (configuration not stated) | > 100 µM | 
83 | CCN1CCN=c2c3cc(OC)ccc3n3cnc4ccc1c2c43 | 0.839 µM | 
84 | CC(=O)n1c2c(c(=O)n1-c1ccccc1)S(=O)CCC2 (configuration not stated) | > 100 µM | 
85 | COc1ccc(C(=O)/C=C/c2ccncc2)cc1OC | 29.2 µM | 
86 | CCOc1ccc2nc(S/C(=C/C=C(C#N)C#N)c3ccc(C)cc3)sc2c1 | > 100 µM | > 100 µM
87 | Cn1c(N)c2c3c(sc2nc1=O)CCCC3 | > 75 µM | 
88 | Oc1cc(O)c2c(c1)OC(c1ccc(O)c(O)c1)C(OC1(c3cc(O)c(O)c(O)c3)Oc3cc(O)cc(O)c3C(O)C1O)C2 (configuration not stated) | > 100 µM | 
89 | COc1ccc(NC(=O)/C(N=O)=C(/C)O)cc1 | > 100 µM | 
90 | CC(C)(C)c1cc(C(=O)/C=C/C=C/c2ccccc2)cc(C(C)(C)C)c1O | > 100 µM | 
91 | CCOP(=O)(O)C(C)(C)NC | > 100 µM | 
92 | Cc1ccc(-c2cc(-c3ccc(Cl)cc3)nc(/N=C3\C(=O)N(CN4CCOCC4)c4ccc(Cl)cc43)n2)cc1 | > 100 µM | 
93 | Cc1ccc(S(=O)(=O)N/N=C/c2oc(-c3ccncc3)c(-c3ccncc3)c2[N+](=O)[O-])cc1 | > 100 µM | 
94 | Cc1ccc(C(=O)N/N=C(\N=Nc2ccccc2[N+](=O)[O-])c2ccc(N(C)C)cc2)cc1 | > 100 µM | 
95 | COc1ccc(-c2nc(SCC(=O)N/N=C/c3ccc(O)c(OC)c3)[nH]c2-c2ccc(OC)cc2)cc1 | > 100 µM | 
96 | NCCCNCCCCNCCCN | > 100 µM | 
97 | O=C(c1ccc(Cl)cc1)c1cnc(Nc2ccccc2Cl)s1 | 52.9 µM | 

— PubChem BioAssay (NCI)
